{"source": "patent US6303761A", "about": "“Triaminepentaacetic acid compound and paramagnetic metal complex prepared from using the compound as ligand” (Department of Health The Executive Yuan, Republic of China, priority 1999, dated 2001)", "test": "Relaxivity R1 and its pH dependence", "conditions": "FIG. 12", "note": "Entries after “also recorded” stand apart in the source; their conditions may differ.", "data": [{"smiles": "CNC(=O)CN(CCN(CCN(CC(=O)[O-])CC(=O)NC)CC(=O)[O-])CC(=O)[O-].[Gd+3]", "note": "[[Gd(DTPA-BMA)], diethylenetriamine pentaacetic acid bis(methylamide)-gadolinium(III)]", "values": [{"measurement": "pH dependence of relaxivity R1", "result": "no pH dependence over the range 4-10; also recorded: in the pH range less than 4.0, R1 increase with the decrease of pH"}]}]}
